Measurements from the supplement of paper PMC10126150.
Values marked as one replicate rest on one cluster of the flow cell; about a third of the high ones do not repeat.

System: ATP
Assay: switch fluorescence ratio, 500 uM ATP over buffer (Cy3 cluster intensity, sum of 5 cycles each) (fold (ratio)); higher = stronger signal-on switching upon ATP binding; sequences stand for … in TCGTCGGCAGCGTCAGATGTGTATAAGAGACAGTTTTTTTTTTTTTTTTTTTTTTTTT…TC
Conditions: aptamer strand: ATP DNA aptamer (quencher-CACCTGGGGGAGTATTGCGGAGGAAGG + anchor), 100 nM annealed; ATP concentration: 500 uM; one replicate
Summary of the method: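 The quencher-labelled ATP aptamer, at 100 nM, was annealed to Cy3-labelled switching-strand clusters on a modified Illumina MiSeq flow-cell. The clusters were imaged in selection buffer, then after 15 min with 500 uM ATP at 22 °C, and this buffer/ATP cycle ran five times with NaOH stripping and re-annealing between runs. Per-cluster fluorescence ratios, summed target-cycle over summed buffer-cycle Cy3 intensity, were averaged per switch-domain sequence. Clusters outside 100-1000 RFU were excluded.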
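Also: ATP exposure 15 min at 22 °C before imaging.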

Sequence	switch fluorescence ratio
ACTACATTAT	1.05
ACAATGGTGT	1.09
AGATGGAAGG	0.992
GATAATATAT	0.989
GCGGAGGTTC	1.01
GCGGGAGAGT	1.03
TGTACTCGAA	1.29
GATTAACAC	1.06
AAGCCCCGGG	1.05
GATAAAATCA	0.934
TAGCACGG	0.985
CGGGACTTGA	0.983
GACCCAGT	1.12
ACACGATTTA	1.04
GGATGGTATC	0.967
TGCCAGTGCA	1.02
TATTTGGAC	1.02
TCTCTCCTT	1
CGGGCGCTAG	0.982
TAATGTTAGG	0.971
GAAGTATGAG	1.06
CGAGTCCAAC	0.997
GGGTTCACGT	0.982

Sequence	switch fluorescence ratio
CACACGGATT	1.02
AAATAACGGG	1.01
TCTAGGGTG	1.61
TACCGTTATT	1.05
TTGTTCACAA	1.03
CGGTTGAACC	0.93
GAGCAGGGAG	1.06
TTGGACGTAA	1.88
AACTAGAGCT	0.984
TGAAGATCTT	0.974
ATGTTTAATG	0.96
TGATTAACGG	1.04
CTTAAAATT	0.967
AGTTTCACCT	1.09
GAGTATTACG	1.07
GCTTTGTGTG	1.01
ACATCCTGAA	1.03
GACGGCCTTT	0.994
GGTGCTGCCG	0.95
AGAATGAAAG	0.97
TTTCCATGAA	0.973
CGTACATAAA	0.991
TTCAACAC	1.05

Sequence	switch fluorescence ratio
AACATTTGCC	1
TTAGGACTCT	0.972
TTTAGCGAAT	1.21
ACAGGTGTCT	0.953
TAAACGGTTG	1.03
GTTCGGGCCG	1.06
GGGGTTTAGA	0.983
AGGACACGGA	1.04
GATACTATAG	1
GCTCCGTGTT	1.99
ACCGAAGGTT	1.01
GGACAGACGG	1.05
ACCAGCCCCC	1.08
TTGTAAACAA	1.05
CTTCTCGTCC	1.04
GGGCATTACG	1.12
CTGGACGGAC	1.17
TTCCGAGGAG	1.04
CGTGCGTCA	0.971
AGCCAGTAAT	1.05
GCGTGATTGG	1.01
CCTGTCGTAA	3.45
AGTTTGTT	0.991

Sequence	switch fluorescence ratio
AATAGCACTG	1.1
ACGTTGACAC	1.51
CCCGTTAGT	1
TACTCTTCA	1.08
AATGTTTTGC	1.08
GGCAATGG	1.87
GACATGTTAA	1.01
CTTAATCGTG	0.978
TAGGATTGTT	1.01
TTTCAAGATC	0.988
GCGCAGCGGG	0.99
TTAATATGAA	1.03
CGAATCCGTC	1.07
CGCACCACG	1.11
TCGTGGATAC	2.54
GTTGACTAGA	0.983
AGATATATGC	1.06
CAAATCAGTA	0.936
CGGTCCCAGG	6.84
ATACTAGGAT	1.01
CAATTATAG	0.975
GACATATTTA	1.04
AAGGTCCTGG	0.967

Sequence	switch fluorescence ratio
AGTCAGTGGC	1
TTCGATAATT	0.991
AACTGGTATG	0.99
GATCAATATT	1.03
TAGGTGCTCG	1.07
CGCTGCTGTA	1.03
TGAGATCAAA	1.03
TGTTGGATAT	1.01
AAAAGGCTCG	1.02
GCTGTATAAA	1.01
TGCAGTATCG	0.97
ATGAGCAGC	0.999
TAAGTACGAT	1.28
GCACTCCCGT	1.33
GTCGGACTTG	0.976
TTGCAGTCTT	1.02
ACGAAAGAT	1.08
GAGCCCCGTA	1.02
TTTGTGTACG	1.03
CCACGCTCCA	1.37
AGTTGACTTC	0.967
ACGAGTCGTG	1.03
TAGACTCATT	0.973

Sequence	switch fluorescence ratio
AGTTATGGAG	1.02
TTATAGAGAG	0.991
CCGAGGTAAA	1.84
GATAGTCACG	1.02
CATGATTGGT	0.962
ATTTTGCTCC	0.992
ATAGGTATTA	0.971
GTTATACACC	1.18
GGCTGGTGTA	0.982
TGCTTTTCCA	0.993
CGAAAGCATA	2.12
AGGAATGGGT	0.996
GATAACCGGA	0.989
ACAGGAACCA	1.07
GGCTTTCCAG	0.972
TGAATTCTGT	1.04
GTTAGAAAGT	0.955
AAAGGGTCAA	0.966
GAGTTCAAGG	0.974
GCCCGAGGGT	0.986
CAAAGCCAAT	3.22
TTATGTCCT	1
AACTCTGGGC	1.02

Sequence	switch fluorescence ratio
TATATAAGGC	0.934
AACCTTTTCG	1.06
GTTAGGCTAG	1.01
GAAACATTTA	1.01
TAGATGCGAA	0.995
TTCAGTACC	1.04
TCACACCG	1.03
ACCGTCTCAC	1.13
TTGAAAATGC	1
CAGACGTTCT	1.04
CCTATACGTT	1.03
CGCAGCGATT	1.82
GCGCTTTAAG	0.983
AACTGGCTGA	1
ATCTGTTCGC	1.01
ACTAAAGTA	1
TGTTTTGGCC	0.99
GTCCTTGGGA	1
CTGTGAATGA	0.951
TTGGTGGGCT	0.995
